Patent US10124065B2, “Lipids and lipid compositions for the delivery of active agents” (Novartis AG, priority 2013, dated 2018)
At least one compound was matched to its structure with a doubt left.

How the values were obtained:
Format in all cases: physicochemical
[1] = Particle size of lipid nanoparticle (dynamic light scattering, Malvern Zetasizer)
From the text: The lipid nanoparticles have a size of about 1 to about 2,500 nm, about 1 to about 1,500 nm, about 1 to about 1,000 nm, in a sub-embodiment about 50 to about 600 nm, in a sub-embodiment about 50 to about 400 nm, in a sub-embodiment about 50 to about 250 nm, and in a sub-embodiment about 50 to about 150 nm. Unless indicated otherwise, all sizes referred to herein are the average sizes (diameters) of the fully formed nanoparticle, as measured by dynamic light scattering on a Malvern Zetasizer. The nanoparticle sample is diluted in phosphate buffered saline (PBS) so that the count rate is approximately 200-400 kcts. The data is presented as a weighted average of the intensity measure. Unless indicated otherwise, all particle size measurements referred to in Tables 4 and 5 are the Z-average particle size of the fully formed nanoparticle, as measured by dynamic light scattering on a Malvern Zetasizer. The nanoparticle sample was diluted in phosphate buffered saline (PBS) so that the count rate is approximately 200-400 kcts.

[2] = Polydispersity index (PDI) of lipid nanoparticle (dynamic light scattering)
Experimental: Unless indicated otherwise, all PDIs referred to herein are the PDI of the fully formed nanoparticle, as measured by dynamic light scattering on a Malvern Zetasizer. The nanoparticle sample was diluted in phosphate buffered saline (PBS) so that the count rate was approximately 200-400 kcts. The data is presented in Tables 4 and 5 as a weighted average of the intensity measure.

[3] = Measurement of mRNA encapsulation (Quant-iT Ribogreen); settings: leptin mRNA in lipid nanoparticles (cationic lipid, DSPC, cholesterol, stealth lipid)
Experimental: All equipment and disposable supplies were certified free of RNase activity by the manufacturer or rendered RNase free by use of the RNaseZap reagent (LifeTechnologies). mRNA was encapsulated at a cationic lipid amine to mRNA phosphate (N:P) molar ratio of 4:1. Lipids (cationic lipid, DSPC, cholesterol and lipidated PEG or stealth lipid) were dissolved in ethanol. The molar ratios were […], respectively. The mixture was sonicated briefly, then gently agitated for 5 minutes and then maintained at 37° C. until use. mRNA was exchanged into citrate buffer pH 5.8-6.0 by use of Amicon Ultra-15 centrifugal concentrators, and the final concentration was adjusted to 0.5 mg/ml and held at 37° C. until use. An equal volume of lipids in ethanol, mRNA in citrate buffer, and citrate buffer alone were drawn into disposable syringes. Tubing leading from syringes containing lipids and mRNA are attached to the T junction, and tubing leading from the syringe containing citrate buffer alone was paired with the tubing exiting the T-junction over a collection vessel containing a stir bar on an active stir plate. Syringes were placed in a syringe pump set to expel contents at a flow rate of 1 ml per minute.
The pump was activated, and the collected mRNA in lipid nanoparticles was transferred to SnakeSkin dialysis tubing (10,000 MWCO, Thermo Scientific). Material was dialyzed against RNAse- and pyrogen-free 1× phosphate buffered saline overnight at 4° C.
Percent encapsulation of mRNA in lipid nanoparticles was determined using the Quant-iT Ribogreen RNA Assay kit (Life Technologies). The LNP-mRNA suspension was assayed in buffer (mRNA outside the particle), and buffer plus Triton X-100 detergent (total mRNA). The difference calculated was the mRNA inside the particle. A 1000 ng/mL stock from the RNA provided in the kit was prepared and used to generate a standard curve (0 ng/ml, 15.63-1000 ng/ml) in TE and TE+0.75% Triton X-100. LNP-mRNA samples in TE buffer and TE buffer+0.75% Triton X-100 were prepared with appropriate dilution so that reading was in the range of standard curve (400-2,000 fold). In a 384-well plate (Costar non-treated #3573) 0.04 ml of standard (in duplicate) or sample (in triplicate) were added per well. Ribogreen reagent was diluted 240-fold in TE buffer and added 0.06 ml per well. The contents of wells were mixed and fluorescence was measured (excitation=480 nm, emission=520 nm). Background values (no RNA) were subtracted from standard and test sample values and the concentrations of RNA were determined in the samples using the standard curves. The percent encapsulation of the sample was determined by dividing the difference in concentrations between sample+triton and sample in buffer alone by the sample+triton concentration.

[4] = FVII siRNA LNP, Chol/DSPC/PEG-DMG, molar ratio 45/44/9/2, Z-average
[5] = FVII siRNA LNP, Chol/DSPC/S010, molar ratio 45/44/9/2, Z-average
[6] = PLK1-424 siRNA LNP, Chol/DSPC/PEG-DSG 45/44/9/2
[7] = PLK1-424 siRNA LNP, Chol/DSPC/S010 45/44/9/2
[8] = leptin mRNA lipid nanoparticles
[9] = FVII siRNA LNP, Chol/DSPC/PEG-DMG, molar ratio 45/44/9/2
[10] = FVII siRNA LNP, Chol/DSPC/S010, molar ratio 45/44/9/2

SMILES | Size (nm) [1, 4] [nm] | Size (nm) [1, 5] [nm] | PDI [2, 9] | PDI [2, 10] | also measured
CCCCC/C=C\C/C=C\CCCCCCCC(=O)OCCCCOc1cc(CN(C)C)cc(OCCCCOC(=O)CCCCCCC/C=C\C/C=C\CCCCC)c1 [Example 38, (9Z,9′Z,12Z,12′Z)-((5-((dimethylamino)methyl)-1,3-phenylene)bis(oxy))bis(butane-4,1-diyl)bis(octadeca-9,12-dienoate)] | 108.0 | 120 | 0.02 | 0.04 | Size (nm) [1, 6]: 116.8 nm; Size (nm) [1, 7]: 116.8 nm; Size (nm) [1, 8]: 142.3 nm; PDI [2, 6]: 0.036; PDI [2, 7]: 0.036; PDI [2, 8]: 0.083; % encapsulation [3]: 90.9%
CCC/C=C\CCCCCCC(=O)OCCCCCCOc1cc(CN(C)C)cc(OCCCCCCOC(=O)CCCCCC/C=C\CCC)c1 [Example 50, (8Z,8′Z)-((5-((dimethylamino)methyl)-1,3-phenylene)bis(oxy))bis(hexane-6,1-diyl)bis(dodec-8-enoate)] |  | 126 |  | 0.056 | 
CCCCCCCCCCCC(=O)OCCCCCCCCOc1cc(CN(C)C)cc(OCCCCCCCCOC(=O)CCCCCCCCCCC)c1 [Example 53, ((5-((dimethylamino)methyl)-1,3-phenylene)bis(oxy))bis(octane-8,1-diyl)didodecanoate] | 129.1 | 113.3 | 0.1 | 0.079 | 
CCCCC/C=C\C/C=C\CCCCCCCC(=O)OCCCCOc1cc(CN(CC)CC)cc(OCCCCOC(=O)CCCCCCC/C=C\C/C=C\CCCCC)c1C [Example 55, (9Z,9′Z,12Z,12′Z)-((5-((diethylamino)methyl)-2-methyl-1,3-phenylene)bis(oxy))bis(butane-4,1-diyl)bis(octadeca-9,12-dienoate)] | 101.9 | 106.9 | 0.10 | 0.043 | 
CCCCCCCCC(CCCCCCCC)CC(=O)OCCCOc1cc(CN(C)C)cc(OCCCOC(=O)CC(CCCCCCCC)CCCCCCCC)c1 [Example 56, ((5-((dimethylamino)methyl)-1,3-phenylene)bis(oxy))bis(propane-3,1-diyl)bis(3-octylundecanoate)] | 110.1 | 99.47 | 0.01 | 0.114 | 
CCCCC/C=C\C/C=C\CCCCCCCC(=O)OCCOCCOc1cc(CN(CC)CC)cc(OCCOCCOC(=O)CCCCCCC/C=C\C/C=C\CCCCC)c1 [Example 58, (9Z,9′Z,12Z,12′Z)-((((5-((diethylamino)methyl)-1,3-phenylene)bis(oxy))bis(ethane-2,1-diyl))bis(oxy))bis(ethane-2,1-diyl)bis(octadeca-9,12-dienoate)] | 120.6 | 138.9 | 0.06 | 0.022 | 
CCCCCCCC/C=C\CCCCCCCC(=O)OCCCCOc1cc(CN(C)C)cc(OCCCCOC(=O)CCCCCCC/C=C\CCCCCCCC)c1 [Example 60, (Z)-((5-((dimethylamino)methyl)-1,3-phenylene)bis(oxy))bis(butane-4,1-diyl)dioleate] |  | 95.55 |  | 0.098 | 
CCCCCCCCCCCCCC(=O)OCCCCOc1cc(CN(C)C)cc(OCCCCOC(=O)CCCCCCCCCCCCC)c1 [Example 61, ((5-((dimethylamino)methyl)-1,3-phenylene)bis(oxy))bis(butane-4,1-diyl)ditetradecanoate] |  | 81.79 |  | 0.076 | 
CC/C=C\C/C=C\C/C=C\CCCCCCCC(=O)OCCCCOc1cc(CN(C)C)cc(OCCCCOC(=O)CCCCCCC/C=C\C/C=C\C/C=C\CC)c1 [Example 62, (9Z,9′Z,12Z,12′Z,15Z,15′Z)-((5-((dimethylamino)methyl)-1,3-phenylene)bis(oxy))bis(butane-4,1-diyl)bis(octadeca-9,12,15-trienoate)] |  | 102.5 |  | 0.066 | 
CCCCC/C=C\C/C=C\CCCCCCCC(=O)OCc1cc(COC(=O)CCCCCCC/C=C\C/C=C\CCCCC)cc(COC(=O)OCCCN(CC)CC)c1 [Example 69, (9Z,9′Z,12Z,12′Z)-(5-((((3-(diethylamino)propoxy)carbonyl)oxy)methyl)-1,3-phenylene)bis(methylene)bis(octadeca-9,12-dienoate)] |  | 98.13 |  | 0.053 | 
CCCCC/C=C\C/C=C\CCCCCCCC(=O)OCCCC(=O)OCc1cc(COC(=O)CCCOC(=O)CCCCCCC/C=C\C/C=C\CCCCC)cc(CN(C)C)c1 [Example 82, (9Z,9′Z,12Z,12′Z)-(((5-((dimethylamino)methyl)-1,3-phenylene)bis(methylene))bis(oxy))bis(4-oxobutane-4,1-diyl)bis(octadeca-9,12-dienoate)] |  | 119.2 |  | 0.064 | 
CCCCCCCC(=O)OCCCCCCCCCC(=O)OCc1cc(COC(=O)CCCCCCCCCOC(=O)CCCCCCC)cc(CN(C)C)c1 [Example 86, (5-((dimethylamino)methyl)-1,3-phenylene)bis(methylene)bis(10-(octanoyloxy)decanoate)] | 128.7 | 120.3 | 0.05 | 0.058 | 
CCCCCCCC(=O)OCCCCCCCC(=O)OCc1cc(COC(=O)CCCCCCCOC(=O)CCCCCCC)cc(CN(C)C)c1 [Example 87, (5-((dimethylamino)methyl)-1,3-phenylene)bis(methylene)bis(8-(octanoyloxy)octanoate)] |  | 159.2 |  | 0.089 | 
CCCCCCCCCC(=O)OCCCCCC(=O)OCc1cc(COC(=O)CCCCCOC(=O)CCCCCCCCC)cc(CN(C)C)c1 [Example 88, (((5-((dimethylamino)methyl)-1,3-phenylene)bis(methylene))bis(oxy))bis(6-oxohexane-6,1-diyl)bis(decanoate)] |  | 152.4 |  | 0.046 | 
CCCCCCCC(=O)OC[C@H](CCOc1cc(CN(C)C)cc(OCC[C@@H](COC(=O)CCCCCCC)OC(=O)CCCCCCC)c1)OC(=O)CCCCCCC [Example 93, (S)-4-(3-((S)-3,4-bis(octanoyloxy)butoxy)-5-((dimethylamino)methyl)phenoxy)butane-1,2-diyldioctanoate] |  | 121.5 |  | 0.071 | 
CCCCCCCC(=O)OC[C@@H](CCOc1cc(CN(C)C)cc(OCC[C@H](COC(=O)CCCCCCC)OC(=O)CCCCCCC)c1)OC(=O)CCCCCCC [Example 94, (R)-4-(3-((R)-3,4-bis(octanoyloxy)butoxy)-5-((dimethylamino)methyl)phenoxy)butane-1,2-diyldioctanoate] |  | 116.4 |  | 0.073 | 
CCCCCCCCCC(=O)OCCCC(=O)OCCCOc1cc(CN(C)C)cc(OCCCOC(=O)CCCOC(=O)CCCCCCCCC)c1 [Example 96, ((((5-((dimethylamino)methyl)-1,3-phenylene)bis(oxy))bis(propane-3,1-diyl))bis(oxy))bis(4-oxobutane-4,1-diyl)bis(decanoate)] |  | 197.3 |  | 0.14 | 
